Data as given in a compilation of properties of binary mixtures (doi:10.1021/acs.jced.4c00686).
The densities may have been worked out from excess volumes.

Assay: xn = mol fraction of the nth substance listed
Conditions: 100 kPa

COC(C)(C)C + CC(C)O
mass density [kg/m3]
Conditions | 293.15 K | 298.15 K
x1 = 0.0471 | – | 771.6
x1 = 0.0998 | 779.5 | –
x1 = 0.1478 | 776.9 | 765.7
x1 = 0.1925 | 774.6 | 763.2
x1 = 0.2487 | 771.7 | –
x1 = 0.2948 | 769.4 | –
x1 = 0.3443 | 767 | –
x1 = 0.3993 | – | 752.4
x1 = 0.4434 | 762.4 | 750.2
x1 = 0.4924 | 760.2 | 747.9
x1 = 0.5393 | – | 745.9
x1 = 0.5935 | 756 | 743.5
x1 = 0.6828 | 752.4 | 739.6
x1 = 0.7408 | 750.2 | –
x1 = 0.7915 | 748.3 | 735.3
x1 = 0.8388 | 746.5 | 733.4
x1 = 0.8944 | 744.4 | 731.3
x1 = 1 | 740.6 | 727.4

CC(C)O + COC(C)(C)C
x2 = 0
Conditions | mass density [kg/m3]
293.15 K | 785.1
298.15 K | 774.4
